From PubChem BioAssay AID1454 (National Center for Advancing Translational Sciences (NCATS), 2008)
About 550 (0.42%) of roughly 130,000 compounds were called active. The shares of active, inactive and inconclusive entries below differ from those in the screen. Calls follow the shape of the dose curve; as a rule, active = well fitted inhibition curve with a large enough effect; inconclusive = small, poorly fitted or top-dose-only effect, or effect the other way; inactive = flat fitted curve, though single readings scatter. No potency is given beside an inconclusive call; the fits are too rough.
Potency is read from the fitted curve at half-maximal effect; tags tell the direction and shape of the fitted curve.

Experiment: qHTS Assay for Inhibitors of the ERK Signaling Pathway using a Homogeneous Screening Assay; Stimulation with EGF; also: nearly all actives have a fitted effect of over 55% in size;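 as to activity change, negative = inhibition: plate controls were stimulated vehicle wells for no effect and unstimulated vehicle basal for full effect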
Settings: HEK293-V1b, EGF-stimulated phospho-ERK AlphaScreen; activity change, negative = inhibition: at the top concentration
Outline: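 Homogeneous cell-based phospho-ERK assay: HEK293/V1b cells in 1% FBS, compound 30 min then EGF 5 min, AlphaScreen luminescence. Activity normalized between DMSO and 25 nM EGF controls; AC50 from Hill modelling.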
For `Cc1ccnc(NC(c2ccsc2)c2ccc3ccc(C)nc3c2O)c1` (centres undefined), the Potency was active: 31.6 µM.
For `O=C(CC1Sc2ccccc2NC1=O)OCc1cc(=O)oc2cc(O)ccc12` (centres undefined), the Potency was inconclusive [inhibitor, partial curve].
In the case of `O=C(NC(=S)Nc1ccc(Cc2ccncc2)cc1)c1ccccc1F`, the Potency is reported as inconclusive [activator, full curve].
In the case of `CC(C)c1ccc(Cn2ccc3c4c(N)nc(NC5CC5)nc4ccc32)cc1`, the “activity change, negative = inhibition” value is reported as inactive: -13.3%.
For `O=c1c(-c2cccc(Cl)c2)nc2cncnc2n1Cc1ccc(F)cc1`, the Potency was inconclusive [inhibitor, single point].
For `COC(=O)c1ccc(C2Nc3cccc4cccc(c34)N2)cc1`, the Potency was inconclusive [inhibitor, partial curve].
In the case of `Cc1ccc(NC(=O)c2ccc(Nc3c([N+](=O)[O-])cc([N+](=O)[O-])cc3[N+](=O)[O-])cc2)cc1`, the Potency is reported as inconclusive [inhibitor, partial curve].
For `CCn1c(SC(C)C)nnc1-c1cc(-c2ccccc2)sc1N`, the Potency was inconclusive [inhibitor, single point].
For `O=C(Nc1ccc([N+](=O)[O-])cc1)C1CC1(c1ccccc1)c1ccccc1` (centres undefined), the Potency was inconclusive [inhibitor, single point].
For `COc1cccc(SCC2(O)CCN(C(=O)c3ccc(Cl)cc3)CC2)c1`, the Potency was inconclusive [inhibitor, single point].
With `O=C(O)CCC(=O)c1ccc2c(c1)CCCC2` the “activity change, negative = inhibition” value was inactive: -1.18%.
In the case of `COc1cccc(-c2c3c([nH]c(=O)c2C#N)CCc2cc(OC)ccc2-3)c1`, the Potency is reported as inconclusive [activator, full curve, poor fit].
For `COc1ccccc1/C=N\Nc1ccccc1[N+](=O)[O-]`, the Potency was active: 10 µM.
With `COc1ccc(CNC(=O)OCCN2CCN(S(=O)(=O)c3ccc(C)cc3)CCC2=O)cc1` the “activity change, negative = inhibition” value was inactive: 6.45%.
For `CC(/C=N/n1c(COc2ccccc2)n[nH]c1=S)=C\c1ccco1`, the Potency was inconclusive [inhibitor, partial curve].
For `Cc1cc(C(=O)NC(=S)Nc2ccccc2N2CCOCC2)ccc1[N+](=O)[O-]`, the Potency was inconclusive [inhibitor, single point].
For `CN(C)C(=O)c1ccc(-c2nccc(NCc3cccnc3)n2)cc1`, the “activity change, negative = inhibition” value was inactive: 36.9%.
For `COc1ccc(-n2c(=O)c(CCc3ccccc3)nc3cnc(N4CCNCC4)nc32)cc1`, the “activity change, negative = inhibition” value was inactive: -17.8%.
For `OCCN1CCN(c2ncnc3c2c(-c2ccccc2)cn3-c2ccc(Br)cc2)CC1`, the Potency was inconclusive [inhibitor, single point].
